# Laboratory results published in PubChem BioAssay AID1865 (National Center for Advancing Translational Sciences (NCATS), 2009).
# “And” between values parts separate entries of the source, which are not always exact repeats. Equal values may be shown once. Screen size: about 280,000 compounds; about 540 (0.19%) were called active. Inconclusive results, whose numbers are uncertain, are shown with a selection of clear calls. Calls come from the whole dose curve; as a rule, active = well fitted activation curve with a large enough effect; inconclusive = small, poorly fitted or top-dose-only effect; inactive = flat fitted curve, though single readings scatter. Potencies beside an inconclusive call are fits to weak or partial responses and may not hold up.
# Experiment: Quantitative High-Throughput Screen for Regulators of Epigenetic Control; note: nearly all actives have a fitted effect of over 60% in size; for GFP activation: % of control where 0% means no effect
# Conditions: murine LDR cells, GFP reporter derepression, 30 h; GFP activation: at 53.9 µM (top of the series)
# How it was run: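 Murine LDR cells carrying a silenced, genomically integrated CMV-driven GFP reporter were exposed to compound for 30 hours at 37 C. After PBS washes, GFP-positive cells (20–120 um objects) were counted by laser-scanning microplate cytometry.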
# Potency is the fitted concentration of half-maximal effect; tags give direction and shape of the fitted curve.
Compound,GFP activation,Potency
COc1ccc(-c2cc(C3CCN(c4cc(Cl)nc(N)n4)CC3)[nH]n2)cc1,inactive: 0.862%,
CCOC(=O)C1=C(SCC)c2cc3c(n2C1=O)CCCC3,inactive: 2.31%,
O=C(Nc1cc(C(F)(F)F)ccc1N1CCOCC1)C1Cc2ccccc2CN1C(=O)c1ccco1 (stereo not given),inactive: 5.51%,
Cn1nnnc1SCCCNCc1cc(Br)ccc1OCc1ccccc1F,inactive: -2.39%,
O=C(Oc1cccccc1=O)c1ccccc1,,"inconclusive: 25.1 µM [activator, single point]"
CS(=O)(=O)Nc1cccc(-c2cncnc2NCc2cccs2)c1,,"inconclusive: 6.31 µM [activator, single point]"
C/C(=N\NC(=S)NC(C)C)c1ccccc1OC(F)F,,"inconclusive: 25.1 µM [activator, single point]"
Cc1ccc(NC(=O)Cn2cc(S(=O)(=O)c3ccc(C)cc3)c(=O)c3cc(F)ccc32)cc1,,"inconclusive: 31.6 µM [activator, single point]"
COc1ccc(/C=C(\C#N)c2nc3ccc(C)cc3[nH]2)cc1Oc1ccc(C(F)(F)F)cc1[N+](=O)[O-],,"inconclusive: 28.2 µM [activator, single point]"
CC(/C=C/C(=O)NO)=C\[C@@H](C)C(=O)c1ccc(N(C)C)cc1,,"inconclusive: 794 nM [activator, full curve] and inconclusive: 35.5 nM [activator, full curve, poor fit]"
COc1ccc(C(=O)c2sc3nc(-c4ccccc4)ccc3c2N)cc1OC,,"inconclusive: 17.8 µM [activator, single point]"
CCOc1ccc(Nc2oc(/C=C/c3ccc(OC)c(OC)c3)nc2C#N)cc1,,active: 31.6 µM
NC(=O)CC(NC(=O)Cc1cccc2ccccc12)c1ccc(NCCc2cccc(F)c2)c([N+](=O)[O-])c1 (stereo not given),,"inconclusive: 35.5 µM [activator, single point]"
COc1ccc(NC(=O)Cn2c(=O)n(-c3cccc(C)c3)c(=O)c3c2c2cc(C)ccc2n3C)cc1Cl,,"inconclusive: 6.31 µM [activator, full curve]"
NS(=O)(=O)c1ccc(CCN2C(=O)/C(=C\c3ccc(Cl)cc3)SC2=S)cc1,,"inconclusive: 31.6 µM [activator, single point]"
Cc1c(O)c2c3c(cccc3c1O)C(=O)N(c1ccccc1)C2=O,,"inconclusive: 25.1 µM [activator, single point]"
N#CCC(=N)N1CCN(c2cccc(Cl)c2)CC1,,"inconclusive: 15.8 µM [activator, single point]"
CCOC(=O)c1c(NC(=O)c2ccc(S(=O)(=O)N(CC(C)C)CC(C)C)cc2)sc2c1CCN(CC)C2,,"inconclusive: 31.6 µM [activator, single point]"
CCOc1ccc(NC(=O)CN2C(=O)c3ccccc3Sc3ccc(C(=O)OC)cc32)cc1,,"inconclusive: 17.8 µM [activator, single point]"
Fc1ccc(-n2c(-c3ccc4ccccc4n3)n[nH]c2=S)cc1,inactive: -0.0253%,

Compound,GFP activation,Potency
CCOc1cc(C(Nc2cc(C)ccn2)c2ccc3cccnc3c2O)ccc1OC (stereo not given),,"inconclusive: 5.62 µM [activator, single point]"
Oc1csc(Cc2nc(-c3ccc(-c4ccccc4)cc3)cs2)n1,inactive: -2.94%,
NC(=O)CC(NC(=O)c1ccc(Br)cc1)c1ccc(NCc2ccc(F)c(F)c2)c([N+](=O)[O-])c1 (stereo not given),,"inconclusive: 35.5 µM [activator, single point]"
COc1c(Cl)cc(Cl)cc1/C=C(\C#N)c1nc2ccccc2[nH]1,,"inconclusive: 35.5 µM [activator, single point]"
O=S(=O)(/C(=C/c1ccc(C(F)(F)F)cc1)c1nc2ccccc2[nH]1)c1ccccc1,,"inconclusive: 4.47 µM [activator, single point]"
CCOC(=O)/C=c1\s/c(=C\c2ccc3cc(OC)ccc3c2)c(=O)n1CC(=O)NCc1ccc2c(c1)OCO2,,active: 7.94 µM
CCCS(=O)(=O)c1ncc(Cl)c(C(=O)Nc2c(C(=O)c3ccccc3)oc3ccccc23)n1,,"inconclusive: 5.62 µM [activator, single point]"
Cc1cc(=O)oc2c(O)c(O)ccc12,inactive: -2.59%,
CN1Cc2sc(NC(=S)NC(=O)c3ccccc3)c(C#N)c2CC1(C)C,,"inconclusive: 35.5 µM [activator, single point]"
N#Cc1ccc(CSC2=NCCN2)cc1,,"inconclusive: 17.8 µM [activator, single point]"
CCn1nc(C)cc1C(=O)Sc1cccc(Cl)c1,,"inconclusive: 22.4 µM [activator, single point]"
Cc1cc(C)cc(OCC(=O)OC/C(O)=C(\C#N)c2nc3ccccc3[nH]2)c1,,"inconclusive: 35.5 µM [activator, single point]"
CCOC(=O)CN1C(=O)S/C(=C/c2ccc(N3CCCCC3)o2)C1=O,,"inconclusive: 2.82 µM [activator, full curve]"
Cc1ccc(NC(=O)CSc2nc(-c3ccc(F)cc3)cc(C(F)(F)F)c2C#N)cc1,,"inconclusive: 28.2 µM [activator, single point]"
O=C(N/N=C/c1ccccc1OC(=O)c1ccc2c(c1)OCO2)c1ccccc1,,"inconclusive: 31.6 µM [activator, single point]"
CCCCN1CC(c2nc3ccccc3n2CCCCOc2c(C)cccc2C)CC1=O (stereo not given),,"inconclusive: 0.0708 µM [activator, partial curve, poor fit]"
O=C(CCn1c(=O)c2cccn2c2cccnc21)NCc1cccc(Br)c1,,"inconclusive: 14.1 µM [activator, single point]"
CCOc1ccc(Nc2oc(/C=C/c3cc(OC)c(OC)c(OC)c3)nc2C#N)cc1,,"inconclusive: 12.6 µM [activator, partial curve]"
COc1ccc(CCNC(=O)CSc2cn(CCNC(=O)c3ccc(OC)c(OC)c3)c3ccccc23)cc1OC,,"inconclusive: 35.5 µM [activator, single point]"
CN(C)S(=O)(=O)c1ccc(-c2csc(N/N=C/c3ccc(O)cc3)n2)cc1,inactive: -0.673%,
